Where two headings read alike, the source gives them in different places.
System: STING pathway, RAW-Dual Reporter cell line
Assay: cells
[1] = read-out: Murine Agonist EC50, 5 hrs
[2] = Mus musculus, 5 h, read-out: Murine Agonist EC50, 5 hrs

| Structure (SMILES) | EC50 [1] [µM] | EC50 [2] [µM] | also measured |
| --- | --- | --- | --- |
| Nc1nc2c(ncn2[C@@H]2O[C@@H]3COP(=O)(S)OCCn4c(nc5c(=O)[nH]cnc54)COP(=O)(S)O[C@@H]2[C@@H]3F)c(=O)[nH]1 (single isomer, unassigned) [Example 3C] | < 10 | – | – |
| Nc1nc2c(ncn2[C@@H]2O[C@@H]3COP(=S)(S)OCCn4c(nc5cncnc54)COP(=O)(S)O[C@@H]2[C@@H]3F)c(=O)[nH]1 (stereo partly drawn) [Example 39, (1S,21R,23R,24R)-23-(2-Amino-6-oxo-6,9-dihydro-1H-purin-9-yl)-24-fluoro-3,18-disulfanyl-18-sulfanylidene-2,4,17,19,22-pentaoxa-7,10,12,14-tetraaza-3lambda5,18lambda5-diphosphatetracyclo[19.2.1.06,14.08,13]tetracosa-6,8(13),9,11-tetraen-3-one] | – | < 10 | Emax (Mus musculus, 5 h, read-out: Murine Agonist Efficacy): > 100% |
| C[C@H]1Cn2c(nc3cncnc32)COP(=O)(S)O[C@@H]2[C@H](F)[C@@H](COP(=O)(S)O1)O[C@H]2n1cnc2c(=O)[nH]c(N)nc21 (single isomer, unassigned) [Example 33D] | < 10 | – | Murine Agonist Efficacy (5 hrs): <100% |
| Nc1nc2c(ncn2[C@@H]2O[C@@H]3COP(=O)(S)OCCn4c(nc5cncnc54)COP(=O)(S)O[C@@H]2[C@@H]3O)c(=O)[nH]1 (single isomer, unassigned) [Example 15C] | – | 10 to 99.9 | – |
| C[C@H]1Cn2c(nc3cncnc32)COP(=O)(S)O[C@@H]2[C@H](F)[C@@H](COP(=O)(S)O1)O[C@H]2n1cnc2c(=O)[nH]c(N)nc21 (single isomer, unassigned) [Example 33C] | 100 to 999 | – | Murine Agonist Efficacy (5 hrs): <100% |
| Nc1nc2c(ncn2[C@@H]2O[C@@H]3COP(=O)(S)OCCn4c(nc5cncnc54)COP(=O)(O)O[C@@H]2[C@@H]3F)c(=O)[nH]1 (single isomer, unassigned) [Example 6B] | < 10 | – | – |
| Nc1nc2c(nnn2[C@@H]2O[C@@H]3COP(=O)(S)OCCn4c(nc5cncnc54)COP(=O)(S)O[C@@H]2[C@@H]3F)c(=O)[nH]1 (single isomer, unassigned) [Example 24A] | – | < 10 | – |
| Nc1nc2c(ncn2[C@@H]2O[C@@H]3COP(=O)(S)OCCn4c(nc5cncnc54)COP(=O)(S)O[C@@H]2C3)c(=O)[nH]1 (single isomer, unassigned) [Example 22A] | – | 10 to 99.9 | – |
| Nc1nc2c(ncn2[C@@H]2O[C@@H]3COP(=O)(S)OCCn4c(nc5cncnc54)COP(=O)(O)O[C@@H]2[C@@H]3F)c(=O)[nH]1 (single isomer, unassigned) [Example 6A] | – | 10 to 99.9 | – |
| Nc1nc2c(ncn2[C@@H]2O[C@@H]3COP(=O)(S)OCCn4c(nc5c(=O)[nH]cnc54)COP(=O)(S)O[C@@H]2[C@@H]3F)c(=O)[nH]1 (single isomer, unassigned) [Example 3D] | 10 to 99.9 | – | – |
| Nc1nc2c(nc3n2CCOP(=O)(S)OC[C@H]2O[C@@H](n4cnc5c(N)ncnc54)[C@H](OP(=O)(S)OC3)[C@@H]2F)c(=O)[nH]1 (single isomer, unassigned) [Example 23D] | – | 10 to 99.9 | – |
| Nc1nc2c(ncn2[C@@H]2O[C@@H]3COP(=O)(S)OCCn4nc(-c5ccncc5)nc4COP(=O)(S)O[C@@H]2[C@@H]3F)c(=O)[nH]1 (single isomer, unassigned) [Example 34C] | < 10 | – | – |
| Nc1nc2c(ncn2[C@@H]2O[C@@H]3COP(=O)(S)OCCn4c(nc5cncnc54)COP(=O)(S)O[C@@H]2[C@@H]3O)c(=O)[nH]1 (mixture of isomers) [Example 15A, (1R,21R,23R,24R)-23-(2-Amino-6-oxo-6,9-dihydro-1H-purin-9-yl)-24-hydroxy-3,18-disulfanyl-2,4,17,19,22-pentaoxa-7,10,12,14-tetraaza-3lambda5,18lambda5-diphosphatetracyclo[19.2.1.06,14.08,13]tetracosa-6,8,10,12-tetraene-3,18-dione] | – | < 10 | – |
| Nc1nc2c(ncn2[C@@H]2O[C@@H]3COP(=O)(S)OCC(F)(F)Cn4c(nc5cncnc54)COP(=O)(S)O[C@@H]2[C@@H]3F)c(=O)[nH]1 (single isomer, unassigned) [Example 19A] | 100 to 999 | – | – |
